Laboratory results published in PubChem BioAssay AID1508642 (National Center for Advancing Translational Sciences (NCATS), 2021).
In all, about 43,000 compounds went through this assay and about 200 (0.47%) were called active. Roughly 12% stayed inconclusive and do not appear here. Calls come from the whole dose curve; as a rule, active = well fitted cell-killing curve with a large enough effect; inconclusive = small, poorly fitted or top-dose-only effect, or effect the other way; inactive = flat fitted curve, though single readings scatter. The list shows a part of the results.

test: Cell viability qHTS assay in S16 Pmp22-F2sN cells; conditions: S16 Pmp22-F2sN Schwann cells (luciferase reporters placed in the Pmp22 gene) viability, CellTiter-Glo, 24 h; series mostly up to 57.5 µM; activity change, negative = cytotoxicity: at the top concentration; note: nearly all actives have a fitted effect of over 65% in size
Outline: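 S16 Schwann cells carrying the Pmp22-F2sN reporter, seeded in 1536-well format, were exposed to library compounds for 24 h at 37C. Viability was read as CellTiter-Glo luminescence after 15 min at room temperature.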
% is set by controls: 0 for no effect and ±100 for the full control effect; potency is the fitted concentration of half-maximal effect.

Structure (SMILES) | activity change, negative = cytotoxicity | Potency
O=C(Nc1nnc(S(=O)(=O)N2CCCc3ccccc32)s1)c1cccc(Cl)c1 | inactive: -2.91% | –
COc1cccc(C2C(C(=O)Nc3ccc(C)cc3C)=C(C)Nc3c(C(=O)Nc4ccccc4)cnn32)c1 (stereo not given) | inactive: -29.9% | –
COC(=O)c1ccc(C2c3c(-c4ccccc4O)n[nH]c3C(=O)N2Cc2cccnc2)cc1 (stereo not given) | inactive: -1.4% | –
COc1ccc(NC(=O)c2cc(S(=O)(=O)N3CCOCC3)ccc2OC)cc1 | inactive: 1.43% | –
CCc1cccc(C)c1NS(=O)(=O)c1c(C(=O)N2CCC(C)CC2)c(C)n(C)c1C | inactive: 3.08% | –
COc1ccc(S(=O)(=O)N2CCC(C(=O)Nc3ccc(Oc4ccccc4)cc3)CC2)cc1 | inactive: -8.63% | –
CC(C)Cn1cc(NC(=O)N2CCN(c3cccc(Cl)c3)CC2)c2ccccc2c1=O | inactive: 4.02% | –
Cc1ccc(C)c(N2CCN(S(=O)(=O)c3ccc4[nH]c5c(c4c3)CCCCC5)CC2)c1 | inactive: 0.363% | –
COc1ccccc1CNS(=O)(=O)c1ccc2c(c1)CC(C)N2C(C)=O (stereo not given) | inactive: -27.6% | –
O=C(NCc1ccccc1)c1ccc(CNS(=O)(=O)c2ccc(Br)cc2)cc1 | inactive: 19.3% | –
CC1CCN(S(=O)(=O)c2ccc3c(c2)N(CC(=O)NC(C)c2ccccc2)C(=O)CS3)CC1 (stereo not given) | inactive: 2.49% | –
Cc1ccc(-c2nc(NC(=O)CSc3cc(C)c4ccccc4n3)ns2)cc1 | inactive: 6.65% | –
Cc1cc(C)c(NC(=O)c2cc(S(=O)(=O)N3CCC4(CC3)OCCO4)ccc2F)c(C)c1 | inactive: 12.3% | –
COc1cc(Cl)c(S(=O)(=O)NCCc2c(C)[nH]c3c(C)cccc23)cc1Cl | inactive: -6.41% | –
Cc1ccc(NC(=O)Cc2ccc(-n3c(C)nc4cccnc43)cc2)c(Cl)c1 | inactive: -27.4% | –
CCOc1ccc(NC(=O)Cn2ncc3c2-c2cc(C)ccc2OC3)cc1 | inactive: -0.309% | –
CCC(=O)N1CCc2cc(Br)cc(S(=O)(=O)CCC(=O)NCc3ccccc3OC)c21 | inactive: -2.34% | –
CCOC(=O)c1[nH]c(C)c(CCC(=O)N2CCN(c3cccc(OC)c3)CC2)c1C | inactive: 5.52% | –
COc1ccc(CCNC(=O)C(=O)Nc2ccccc2F)cc1 | inactive: -3.59% | –
COc1ccccc1C(=O)NCCn1cc(SCC(=O)Nc2ccccc2F)c2ccccc21 | inactive: 15.5% | –
Cc1ccc(CNC(=O)C(=O)Nc2c3c(nn2-c2ccccc2)CSC3)cc1 | inactive: -24.6% | –
COc1ccc(C(=O)N2c3ccccc3C(C)(c3ccc(Cl)cc3)CC2(C)C)cc1 (stereo not given) | inactive: -9.07% | –
COc1ccc(CCNC(=O)c2c(O)nc3c(C)cccn3c2=O)cc1 | inactive: 3.69% | –
Cc1ccc(-c2onc(C)c2C)cc1S(=O)(=O)N1c2ccccc2CC1C (stereo not given) | inactive: -11.7% | –

Structure (SMILES) | activity change, negative = cytotoxicity | Potency
O=S1(=O)c2ccccc2N(Cc2cccc(C(F)(F)F)c2)c2ccccc21 | inactive: -15.7% | –
Cc1cccc(NC(=O)Cn2c(=O)n(CCCS(=O)(=O)C3CCCCC3)c(=O)c3ccccc32)c1 | inactive: 9.09% | –
CCOCCCNC(=O)c1[nH]c2cc(C)ccc2c1Sc1ccc(Cl)cc1 | inactive: -1.15% | –
O=C(NCCn1cc(SCc2ccc(Cl)cc2)c2ccccc21)c1cccs1 | inactive: 18.1% | –
COc1cc(OC)c(N(C)C(=O)CCNC(=O)Cn2cnc3ccccc3c2=O)cc1Cl | inactive: 14.5% | –
CN(C)CCNC(=O)Cn1c(=O)c2cccn2c2ccc(F)cc21 | inactive: 9.41% | –
CCOCCc1nn2c(=O)cc(COC(=O)c3ccccc3NC(=O)C3CCCCC3)nc2s1 | inactive: -3.91% | –
C#CCSc1nc2sc3c(c2c(=O)n1Cc1ccccc1)CCCC3 | inactive: 20.1% | –
COc1ccc(NC(=O)c2sc3nc(-c4ccc(OC)cc4)cc(C(F)(F)F)c3c2N)cc1 | inactive: 4.44% | –
Cc1ccc(C)c(CN2C(=O)c3ccccc3S(=O)(=O)c3ccc(C(=O)N4CCN(c5ccccc5)CC4)cc32)c1 | inactive: 2.28% | –
Cc1ccccc1Nc1c(-c2ccco2)nc2c(C)cccn12 | inactive: -9.31% | –
Cc1ccc(NC(=O)CCS(=O)(=O)c2cccc3nonc23)cc1Cl | inactive: -19.5% | –
Cc1ccc(CS(=O)(=O)c2ncc(Cl)c(C(=O)Nc3nc4ccc(C)cc4s3)n2)cc1 | – | active: 20 µM
Cc1n[nH]c(C)c1S(=O)(=O)N(CC(=O)Nc1ccc(C(F)(F)F)cc1)c1ccc(C(C)C)cc1 | inactive: -17.6% | –
Oc1c(C(c2ccc(Cl)cc2)N2CCC3(CC2)OCCO3)sc2nc(-c3ccco3)nn12 (stereo not given) | inactive: -0.306% | –
O=C(Cn1c(=O)oc2ccccc21)Nc1ccc(C(=O)O)cc1 | inactive: -0.167% | –
COc1cc(NC(=O)c2cccc3c2C(=O)N(C2CCCCC2)C3)cc(OC)c1 | inactive: 17.8% | –
CCn1c(=O)c(C(=O)Nc2ccc(C(C)=O)cc2)nc2ccccc21 | inactive: -5.72% | –
CCOc1ccccc1NC(=O)CSc1nc2cc(OC)c(OC)cc2c2nc(-c3ccccc3)nn12 | inactive: 0.79% | –
Cn1c(NCCO)nc2c1c(=O)n(Cc1cccc(F)c1)c(=O)n2C | inactive: 0.244% | –
COc1cccc(/C=C/c2nc(C#N)c(NCCc3ccc(OC)c(OC)c3)o2)c1 | inactive: -0.305% | –
COC(=O)c1ccc2c(c1)N(Cc1ccc(F)cc1)C(=O)c1ccccc1S2 | inactive: 6.05% | –
CCCCN(CCCC)S(=O)(=O)c1ccc2oc(C(=O)NCc3ccc(C)cc3)c(C)c2c1 | inactive: -17.6% | –
CCCCN1C(=O)C(O)(c2c[nH]c3ccccc23)c2cc(Br)ccc21 (stereo not given) | inactive: -9% | –

Structure (SMILES) | activity change, negative = cytotoxicity | Potency
CCc1ccc(-c2[nH]c3c(c2-c2sc(C)c(C(=O)OC)c2O)c(=O)[nH]c(=O)n3C)cc1 | inactive: -3.66% | –
Cc1nn(C(=O)c2ccc(Br)cc2)c(C)c1S(=O)(=O)N1CCOCC1 | inactive: -3.92% | –
Cc1coc2c(C)c3oc(=O)c(CCC(=O)NCCc4ccccc4)c(C)c3cc12 | inactive: 8.27% | –
COc1ccc(-c2cc(C(F)(F)F)nc(SCCC(=O)Nc3cc(C)ccc3O)n2)cc1 | inactive: 11.9% | –
Cc1ccc(NC(=O)Cn2c(=O)n(Cc3ccco3)c(=O)c3sc4ccccc4c32)cc1C | inactive: -1.22% | –
CCOc1ccc(CCNC(=O)c2cnc3c(-c4ccc(F)cc4)c(C)nn3c2C)cc1OCC | inactive: -1.21% | –
COc1ccc2c(c1)sc1ncc(C(=O)NCc3ccc(OC(C)C)cc3)c(=O)n12 | inactive: 10.2% | –
COc1cc(Cl)c(C)cc1NC(=O)c1cn(C2CCCC2)c(=O)c2c1c1ccccc1n2C | inactive: -5.08% | –
COc1ccc(C(=O)Nc2ccc3nc(N4CCC(C)CC4)cc(C)c3c2)cc1 | inactive: 13.7% | –
CCOc1ccc(-c2nnc(SCC(=O)NCCc3ccc(OC)c(OC)c3)nc2-c2ccc(OCC)cc2)cc1 | inactive: 14.5% | –
O=C(Nc1cccc(OCc2cc(=O)n3c4c(sc3n2)CCCC4)c1)c1ccc(F)cc1 | inactive: 2.52% | –
Cc1ccccc1-c1noc(CCC(=O)Nc2cccc(C)c2C)n1 | inactive: -10.1% | –
Cc1ccc2nc(-c3cc(NC(=O)/C=C/c4ccccc4)ccc3Cl)oc2c1 | inactive: 12.7% | –
CCOCCCNC(=O)C(Cc1ccccc1)NS(=O)(=O)c1ccc2c(c1)c(=O)n(C)c(=O)n2C (stereo not given) | inactive: -0.142% | –
COc1ccc(Cl)cc1-n1c(/C=C/c2cccc3ccccc23)nc2ccccc2c1=O | inactive: 5.52% | –
CCOc1cccc(C(c2c(C)n(C)n(-c3ccccc3)c2=O)c2c(C)n(C)n(-c3ccccc3)c2=O)c1OC | inactive: 13.4% | –
CCOC(=O)c1c(NC(=O)COc2cc(C)ccc2C(C)C)sc(C)c1C | inactive: -3.29% | –
CCOc1ccccc1NC(=O)Cn1c(=O)n(-c2ccc(F)cc2)c(=O)c2sc3ccccc3c21 | inactive: 10.5% | –
COc1ccc(CCNC(=O)CCCn2c(=O)c3ccccc3n(CC(=O)Nc3cc(Cl)ccc3C)c2=O)cc1OC | inactive: 20.1% | –
CCOc1ccc(NC(=O)c2nn(C)c3c2CS(=O)(=O)c2ccccc2-3)cc1 | inactive: 3.67% | –
CCOC(=O)c1ccc(N2C(=O)c3n[nH]c(-c4ccco4)c3C2c2ccc(O)cc2)cc1 (stereo not given) | inactive: -0.632% | –
CCCn1cc(S(=O)(=O)c2ccccc2)c(=O)c2cc(F)c(N3CCCC(C)C3)cc21 (stereo not given) | inactive: -1.39% | –
CCCN(CCC)CCCNC(=O)C1CCN(S(=O)(=O)CC)CC1 | inactive: 19.9% | –
Cc1ccc(S(=O)(=O)c2cc3cc(C(=O)O)ccc3oc2=O)cc1 | inactive: 13.3% | –

Structure (SMILES) | activity change, negative = cytotoxicity | Potency
Cc1ccc(CSCC(=O)N2CCN(c3ccccc3F)CC2)cc1 | inactive: 4.6% | –
Cc1ccc(S(=O)(=O)CC(=O)Nc2sc3c(c2C#N)CCCC3)cc1 | inactive: 1.75% | –
CCn1cc(CCC(=O)NCc2ccccc2OC)c2ccccc21 | inactive: -6.16% | –
CC1=C(C(=O)Nc2ccccc2)C(c2cccnc2)n2nc(SCc3ccccc3Cl)nc2N1 (stereo not given) | inactive: -2.27% | –
CCOC(=O)Cn1c(=O)n(C2CCCCC2)c2nc(-c3cccc(F)c3)nc(C(N)=O)c21 | inactive: 19.5% | –
Cc1ccccc1NC(=O)Cn1c(=O)oc2cc(Br)ccc21 | inactive: -2.84% | –
COc1ccc(N(CC(=O)Nc2cccc(Cl)c2C)S(=O)(=O)c2c(C)nn(C)c2C)cc1 | inactive: 2.49% | –
Cc1ccc(NC(=O)c2cccc3c2C(=O)N(C2CCCCC2)C3)c(C)c1 | inactive: 5.26% | –
COc1cccc(Cn2c(CNC(=O)Cc3cccc(C)c3)nc3cccnc32)c1 | inactive: 10.6% | –
CCCCN(CC)CCCNC(=O)c1nn(C)c2c1CS(=O)(=O)c1ccccc1-2 | inactive: 4.2% | –
CCc1c(C)sc(NC(=O)c2cc(-c3cccc(Cl)c3)on2)c1C#N | inactive: -7.38% | –
CCOC(=O)C1CCCN(c2cc(C)nc3c(-c4ccccc4OC)c(C)nn23)C1 (stereo not given) | inactive: 3.17% | –
Cc1c(C)n(C)c2ccc(C(=O)NCCCN3CCCCC3C)cc12 (stereo not given) | inactive: -19.1% | –
O=C(c1cc2c(s1)-c1ccccc1OC2)N1CCN(c2ccccc2F)CC1 | inactive: 12.7% | –
CCOc1ccc(CNC(=O)c2ccc(NC(=O)N3CCSc4ncccc43)cc2)cc1OC | inactive: -4.28% | –
CN(C)c1cc2c(cc1NC(=O)c1ccc(F)cc1)n(C)c(=O)n2C | inactive: -0.938% | –
O=C(NCCCc1nc2ccccc2n1Cc1ccccc1)C1CCCCC1 | inactive: 1.13% | –
Cc1ccccc1OCc1ccc(-c2nc(C#N)c(N3CCN(c4ccccc4)CC3)o2)o1 | inactive: 1.43% | –
Cc1cccc(-c2nnn3c2nc(NCc2ccccc2)c2ccccc23)c1 | inactive: 2.08% | –
CC(C)CCNC(=O)C1CCN(S(=O)(=O)c2cccc3nsnc23)CC1 | inactive: -4.43% | –
CNC(=O)C1CCN(Cc2cc3ccccc3n2Cc2cccc(C)c2)CC1 | inactive: -8.31% | –
CCc1ccc(-c2cc(C)no2)cc1S(=O)(=O)Nc1ccc(C)cn1 | inactive: -2.14% | –
CC(=O)c1ccc(NC(=O)CSc2nnc(NC(=O)Nc3ccccc3)s2)cc1 | inactive: -2.66% | –
